Data taken from the supplement of paper PMC6135742.
Where “and” joins values, the source holds several entries; their conditions need not be identical. Identical values can stand only once. Counter-ions that a name gives are not always drawn. ± gives the standard deviation of the averaged measurements. In all, about 2,600 compounds were measured (“total cell number (DAPI+ nuclei) relative to DMSO vehicle control”: median about -1.4, lowest 2% from about -23 on). The list shows a part of the results.

system: jimpy (Plp1 jimpy) mouse iPSC-derived oligodendrocyte progenitor cells; experiment: total cell number (DAPI+ nuclei) relative to DMSO vehicle control (SDs above negative control mean); higher = more surviving cells; conditions: 10 µM; 3 days

SMILES	total cell number
COc1ccc(-c2coc3cc(O)ccc3c2=O)cc1 [Formononetin]	1.27
CS(=O)(=O)c1ccc(C(=O)Nc2ccc(Cl)c(-c3ccccn3)c2)c(Cl)c1 [Vismodegib (GDC-0449)]	-1.63
COc1ccc(CC(C)NCC(O)c2ccc(O)c(NC=O)c2)cc1 (configuration not stated) [Formoterol Hemifumarate]	2.35
COc1ccc(CC(C)NCC(O)c2ccc(O)c(NC=O)c2)cc1 (configuration not stated) [Formoterol]	-0.886
CC(C)C[C@H](NC(=O)[C@H](Cc1ccccc1)NC(=O)c1cnccn1)B(O)O [Bortezomib (PS-341)]	-20.2
O=C(OCCN1CCOCC1)C1(c2ccccc2)CCCCC1	-0.938
Cc1ccc2c(c1)C(=O)C1(O)CCN(c3ccccc3)C1=N2 (single isomer, unassigned; (-)) [(-)-Blebbistatin]	-14.8
CC(C)(Oc1ccc(CCNC(=O)c2ccc(Cl)cc2)cc1)C(=O)O [Bezafibrate]	0.23 ± 0.27
OCCN1CCN(CCCN2c3ccccc3Sc3ccc(C(F)(F)F)cc32)CC1 [Fluphenazine dihydrochloride]	-7.98
c1ccc(CC2=NCCN2)cc1 [Tolazoline HCl]	0.39
NCCCCC(=O)O [5-Aminovaleric acid hydrochloride]	-2.24
O=C(O)CCc1nc(-c2ccccc2)c(-c2ccccc2)o1 [Oxaprozin]	-0.844 ± 0.56
Clc1ccc2c(c1)C(N1CCNCC1)=Nc1ccccc1O2 [Amoxapine]	-5.64
O=C1c2ccccc2C(=O)C1c1ccccc1 [Phenindione]	-0.616
CC(C)[C@@H](C)/C=C/[C@@H](C)[C@H]1CC[C@H]2C3=CC=C4C[C@@H](O)CC[C@]4(C)[C@H]3CC[C@]12C [Ergosterol]	-0.31
O=C(O)CCCc1c[nH]c2ccccc12 [3-Indolebutyric acid (IBA)]	-1.42
O=C(c1cc(Cc2n[nH]c(=O)c3ccccc23)ccc1F)N1CCN(C(=O)C2CC2)CC1	-9.61
CC[C@H]1OC(=O)[C@H](C)[C@@H](O[C@H]2C[C@@](C)(OC)[C@@H](O)[C@H](C)O2)[C@H](C)[C@@H](O[C@@H]2O[C@H](C)C[C@H](N(C)C)[C@H]2O)[C@](C)(O)C[C@@H](C)C(=O)[C@H](C)[C@@H](O)[C@]1(C)O [Erythromycin]	0.42
CC(C(=O)O)c1ccc(CC2CCCC2=O)cc1 (configuration not stated) [loxoprofen]	-0.593
CC1=C(/C=C/C(C)=C/C=C/C(C)=C/C=C/C=C(C)/C=C/C=C(C)/C=C/C2=C(C)CCCC2(C)C)C(C)(C)CCC1 [Beta Carotene]	-2.83
CO[C@H]1/C=C/O[C@@]2(C)Oc3c(C)c(O)c4c(O)c(c(/C=N/N5CCN(C)CC5)c(O)c4c3C2=O)NC(=O)/C(C)=C\C=C\[C@H](C)[C@H](O)[C@@H](C)[C@@H](O)[C@@H](C)[C@H](OC(C)=O)[C@@H]1C [Rifampin]	-2.94
COc1cc(F)c(C(C)C)cc1-c1ccc(C(F)(F)F)cc1CN1C(=O)O[C@H](c2cc(C(F)(F)F)cc(C(F)(F)F)c2)[C@@H]1C [Anacetrapib (MK-0859)]	0.445
CC(C)NCC(O)c1ccc(O)c(O)c1 (racemic) [Isoprenaline HCl]	-1.1
CC(C)NCC(O)c1ccc(O)c(O)c1 (racemic) [(±)-Isoproterenol hydrochloride]	-1.5
CCCSc1ccc2[nH]c(NC(=O)OC)nc2c1 [Albendazole]	-6.19
Cc1c(Cl)cccc1Nc1ccccc1C(=O)O [Tolfenamic Acid]	-0.866

SMILES	total cell number
Cc1ccc(N(CC2=NCCN2)c2cccc(O)c2)cc1 [Phentolamine Mesylate]	0.634
Cc1ccc(N(CC2=NCCN2)c2cccc(O)c2)cc1 [Phentolamine mesylate]	-0.125
CNC[C@@H](O)c1ccc(O)c(O)c1 [L-Adrenaline]	-0.0165
CC[n+]1c(/C=C/C=C2/N(C)c3ccccc3C2(C)C)sc2ccccc21	-11
CCc1ccc(CCOc2ccc(CC3SC(=O)NC3=O)cc2)nc1 (configuration not stated) [Pioglitazone]	-1.8
CCc1ccc(CCOc2ccc(CC3SC(=O)NC3=O)cc2)nc1 (configuration not stated) [Pioglitazone HCl]	-0.831
CC(C)(C)c1ccc(/C=C/C(=O)Nc2ccc3c(c2)OCCO3)cc1	0.103
Oc1ccc(C2CNCCc3c2cc(O)c(O)c3Cl)cc1 (configuration not stated) [Fenoldopam bromide]	-2.3
CC(C(=O)O)c1cccc(Oc2ccccc2)c1 (configuration not stated) [Fenoprofen Calcium]	-0.58
CCCc1ncc(C[n+]2ccccc2C)c(N)n1 [Amprolium HCl]	-0.382
O=C1NC(=O)/C(=C/c2ccc3nccc(-c4ccncc4)c3c2)S1	-20.2
O=C1NC(=O)C(c2ccccc2[N+](=O)[O-])=C1Nc1ccc(O)c(Cl)c1	-1.07 and -1.59
OC[C@H]1OC(O)[C@H](O)[C@@H](O)[C@@H]1O (some centres not stated) [Dextrose]	2.21
O=C(O)C1CCNCC1 [Isonipecotic acid]	-1.95
CC1(C)CCC(NC(=O)[C@@H](N)CCC(=O)O)CC1	-1.77
C=CC(N)CCC(=O)O (racemic) [(±)-gamma-Vinyl GABA]	-0.562
OC[C@@H](O)[C@@H](O)[C@H](O)[C@H](O)CO [D-Mannitol]	1.04
CC1(C)CCC=[N+]1[O-] [5,5-Dimethyl-1-pyrroline-N-oxide]	0.081
CCn1cc(C(=O)O)c(=O)c2cc(F)c(N3CCNCC3)nc21 [Enoxacin]	2.28
CC(=O)OCC(=O)NCCCOc1cccc(CN2CCCCC2)c1 [Roxatidine Acetate HCl]	-1.22
C[C@H](NCc1ccc(OCc2cccc(F)c2)cc1)C(N)=O [Safinamide Mesylate]	-4.82
N[C@@H](CC(=O)O)C(=O)O [L-Aspartic acid]	-2.53
CC(C)OC(=O)C(C(=O)OC(C)C)=C1SC=CS1 [Malotilate]	7.42
CNc1ncnc2c1ncn2[C@@H]1O[C@H](CO)[C@@H](O)[C@H]1O [N6-methyladenosine (m6A)]	-1.41
CC(C)(C)C(=O)OCOC(=O)[C@@H]1N2C(=O)[C@@H](/N=C/N3CCCCCC3)[C@H]2SC1(C)C [Pivmecillinam]	-2.02
c1ccc2c(c1)CCCC2C1=NCCN1 (configuration not stated) [Tetrahydrozoline hydrochloride]	-0.562

SMILES	total cell number
c1ccc2c(c1)CCCC2C1=NCCN1 (configuration not stated) [Tetrahydrozoline HCl]	1.51
CN(C)C[C@H](O)Cn1c2ccc(Br)cc2c2cc(Br)ccc21 (racemic) [Wiskostatin]	-4.17
C[C@@H](O)[C@H]1C(=O)N2C(C(=O)O)=C(SCCNC=N)C[C@H]12 [Imipenem monohydrate]	-1.16
CN=c1nc(-c2ccccc2)n(-c2ccccc2)s1	-0.562
C=C(C)[C@@H]1CC[C@]2(C(=O)O)CC[C@]3(C)[C@H](CC[C@@H]4[C@@]5(C)CC[C@H](O)C(C)(C)[C@@H]5CC[C@]43C)[C@@H]12 [Betulinic acid]	-0.338
CCCCCN(C)CCC(O)(P(=O)(O)O)P(=O)(O)O [Ibandronate sodium]	-0.942
C1N2CN3CN1CN(C2)C3 [Methenamine]	-0.338
O=C(O)C1=C[C@@H](O)[C@@H](O)[C@H](O)C1 [Shikimic Acid]	0.0421
CC(C)c1nc(N(C)S(C)(=O)=O)nc(-c2ccc(F)cc2)c1/C=C/[C@@H](O)C[C@@H](O)CC(=O)O [Rosuvastatin Calcium]	-1.16
C[N+](C)(C)CCOP(=O)(O)OP(=O)([O-])OC[C@H]1O[C@@H](n2ccc(N)nc2=O)[C@H](O)[C@@H]1O [Cytidine 5'-diphosphocholine sodium salt hydrate]	-1.99
C[C@](N)(Cc1ccc(O)cc1)C(=O)O [L-alpha-Methyl-p-tyrosine]	-0.37
CC(C)NCC(O)COc1cccc2ccccc12 (racemic) [(±)-Propranolol hydrochloride]	-1.57
CC(C)NCC(O)COc1cccc2ccccc12 (racemic) [Propranolol HCl]	-2.66
O=C(COc1cccc2c(=O)[nH]ccc12)c1ccccc1	-0.123
O=C(O)Cn1c(C(=O)Nc2nc(-c3ccccc3Cl)cs2)cc2ccccc21	-1.71
CNCCNS(=O)(=O)c1cccc2cnccc12 [H-8 dihydrochloride]	-1.59
CCN(CC)CCCC(C)Nc1ccnc2cc(Cl)ccc12 (configuration not stated) [Chloroquine diphosphate]	-3.23
CS(=O)(=O)c1ccc([C@@H](O)[C@@H](CF)NC(=O)C(Cl)Cl)cc1 [Florfenicol]	1.1
CN1CCC(=C2c3ccccc3C=Cc3ccccc32)CC1 [Cyproheptadine HCl]	-8.37
CN1CCC(=C2c3ccccc3C=Cc3ccccc32)CC1 [Cyproheptadine hydrochloride]	-6.41
NCC(O)C1CCCCCCC1 (configuration not stated) [2-Cyclooctyl-2-hydroxyethylamine hydrochloride]	-0.1
N=C(N)NC(=N)NCCc1ccccc1 [Phenformin HCl]	2.53
CO[C@H]1/C=C/O[C@@]2(C)Oc3c(C)c(O)c4c(O)c(c(/C=N/N5CCN(C6CCCC6)CC5)c(O)c4c3C2=O)NC(=O)/C(C)=C\C=C\[C@H](C)[C@H](O)[C@@H](C)[C@@H](O)[C@@H](C)[C@H](OC(C)=O)[C@@H]1C [Rifapentine]	-3.26
CC(C)(C=O)Cc1cc(C(C)(C)C)c(O)c(C(C)(C)C)c1	0.433
C[C@H]1O[C@H](O[C@H]2[C@H](O)[C@@H](O)[C@@H](O[C@H]3[C@H](O)[C@@H](O)C(O)O[C@@H]3CO)O[C@@H]2CO)[C@H](O)[C@@H](O)[C@@H]1N[C@H]1C=C(CO)[C@@H](O)[C@H](O)[C@H]1O (some centres not stated) [Acarbose]	-3.41
